In article PMC12136788:
The other results are listed elsewhere or left out.

B1: chr2:10942720:10942721:-_ENSG00000143870_ENST00000272227|hu_mus|FALSE|FALSE (ssRNA)
RNA: GGGAGUUCUACAGUCCGACGAUCAAUAACUUCUCUGUUGAAAUUUGAUGGCGUCAACUCGAUGACAUCAUCACUAGAAGAAUACAGACCGCUGACUGCUAGAAAGAAGGUGCAGCUCACCAGACCGAGCACCAGGCGAGCCAUCAACAGAGGAUUGAGCAUCA
B2: 132740746_132740866_469_3pUTR_ENSG00000187239_ENST00000446176|human|control|control (ssRNA)
RNA: GGGAGUUCUACAGUCCGACGAUCUUUCCUCUCCUGUUUCAGUUCCUGAACAUAGCGUGCCAAGUCCACAAUGAUCUGUGAUGCCAUGUUCUCGGAGAUAACUUCAUGCUGCCCUGCGUAAUCAUUCAUUUCGUUCAGGUUGGACAACAGAGGAUUGAGCAUCA
B3: chr7:7679991:7679992:-_ENSG00000106399_ENST00000396682|hu_hu|hu_hu_hu_mus_False|38_38 (ssRNA)
RNA: GGGAGUUCUACAGUCCGACGAUCUGGGAUGAAUCUUUUCCAGCUUCCCCACGAAGCACACGGGCCGGUCGAUAUACUGUGGUAACAUGCUGGCGUUGAUGCGCGACUUGGGGAGCUGCAUUAUGUCCUCCAUGAUUCUGCCGCCAACAGAGGAUUGAGCAUCA
B4: chr2:73747422:73747423:-_ENSMUSG00000018770_ENSMUST00000018914|mus_hu|FALSE|FALSE (ssRNA)
RNA: GGGAGUUCUACAGUCCGACGAUCCUGAGACACACCAUUCUGGGCCCCAUUAAAUACCGUAGAGCCCUCUCCAGUCCUACUAGCCUCUGGUCGAGAUAACACUGAUGCAGAAAUUGGUCUGUAUGCAACUCUGGAUCCAGCUCGCAACAGAGGAUUGAGCAUCA
B5: chr14:89307221:89307222:+_ENSG00000165533_ENST00000346301|hu_mus|hu_hu_hu_mus_False|38_58 (ssRNA)
RNA: GGGAGUUCUACAGUCCGACGAUCUCCUGUUUGGUUAGUGCCAGGGAGCUUCAAAGAUGUGCCAGGGCGUGGGACCUGAGCUAUAGCAUUUUCAUCCAGCAUCAUUUCAGCAAUUCCUUCCUGGUCCACAUCAAUUUCAUCUAUCAACAGAGGAUUGAGCAUCA
B6: chr1:60041781:60041782:+_ENSMUSG00000041040_ENSMUST00000036540|mus_hu|mus_mus_mus_hu_False|1_98 (ssRNA)
RNA: GGGAGUUCUACAGUCCGACGAUCAAGUUUACAAUAGCUCAACUUUAGCAGUAGUGGCAAAUUUUCUUUUAUUUUCCUUCACAAAAGAAAAUCUUUAUAACCCAGUCCUAGUCUUGGACAUAGUGAAAGCUAUAAAUGCCACUGCAACAGAGGAUUGAGCAUCA
B7: chr17:65336665:65336666:-_ENSG00000197170_ENST00000356126|hu_hu|motif|central (ssRNA)
RNA: GGGAGUUCUACAGUCCGACGAUCUAUAUACUGCUUUUAUUAUUGGAAUAUGUUUGUUAGUUGAAUGAAAACAAACAGUAGCGGAAAAGGUUUCAAAUGAUAGAAAAACAUAUCUGGGUAAGUUAUGACACAACUUUUUGUGUACAACAGAGGAUUGAGCAUCA
B8: chr19:32867047:32867048:+_ENSMUSG00000013663_ENSMUST00000013807|mus_hu|FALSE|FALSE (ssRNA)
RNA: GGGAGUUCUACAGUCCGACGAUCAGCACAAAGAUUGUAUAUCUUGUAAUGGUUUUUAUGCUUUGAAUCCAAAAACCUUACUACAUCAUCAAUAUUGUUCCUGUAUACGCCUUCAAGUCUUUCUGCAGGAAAUCCCAUAGCAAUCAACAGAGGAUUGAGCAUCA
B9: chr6:31368937:31368938:+_ENSMUSG00000025609_ENSMUST00000026699|mus_hu|FALSE|FALSE (ssRNA)
RNA: GGGAGUUCUACAGUCCGACGAUCGGGAGGAUAGUUGCUCUCUGAAGACCAUCUUGAAGAUUGGUCAUUUGGUUUGUCCACUAAAAUGUUCUCGGGAAGGUAGGUGGAGGAAAAGGAGCUCCACUUGUGUAGCGCGUAGGGGAGCAACAGAGGAUUGAGCAUCA
B10: 113712620_113712740_1128_3pUTR_ENSMUSG00000003316_ENSMUST00000169020|mouse|control|control (ssRNA)
RNA: GGGAGUUCUACAGUCCGACGAUCGGGACCGAGGAAGGUUUUCCACAUUGCACCGGUAUUUUUUCAAGUCACUCUUACAGGAUUUGGCUAAUGAGUAACUGACUUUAUAAUCCUGGGCAAUGAGCUUCUGGCGUGUAGUUAGUGCAACAGAGGAUUGAGCAUCA
B11: chr7:141441981:141441982:+_ENSG00000106028_ENST00000265304|hu_mus|hu_hu_hu_mus_False|38_78 (ssRNA)
RNA: GGGAGUUCUACAGUCCGACGAUCCUCAUGUCUUACAAACUGACGAAAUACCUGUAAUACAGGUCUUCGAAACAUGGCUUCUGUUUUUCUUACAACCAGUCUAAUCUGCUUUUCCUAAAGGAAAGAAAGAAAAGAGAAAAAUGACAACAGAGGAUUGAGCAUCA
B12: chr9:96978117:96978118:-_ENSMUSG00000032449_ENSMUST00000035024|mus_hu|FALSE|FALSE (ssRNA)
RNA: GGGAGUUCUACAGUCCGACGAUCUUUUUUUUUAAUCUUAACAUGGUAUUCUCUCCUACUCUCUCACCCUCCCCCCCAAAAAAGGCCACAAAGUGCUUUCACGAAGCGUCAUUCUUUUAGAUAAAGCCAUUGCACAAAAUGUACCAACAGAGGAUUGAGCAUCA
B13: chr1:27731043:27731044:-_ENSG00000158195_ENST00000430629|hu_mus|motif|central (ssRNA)
RNA: GGGAGUUCUACAGUCCGACGAUCCAGGUCCCACCUCCCAACCUUUGGGAAGAAAGGGUCUAUUUUUAGACAGUAUUCCCUCGGUGCAUUAGCUAGCAGAAAUCUUGAUAUGGGAAACACCAAGAGCCUAUUGGAAUAGGUCCUCAACAGAGGAUUGAGCAUCA
B14: chrX:147030410:147030411:+_ENSG00000102081_ENST00000218200|hu_mus|motif|central (ssRNA)
RNA: GGGAGUUCUACAGUCCGACGAUCACUUCAUGCCCUGUGCCAUCUUGCCUACUAUUUGUCUUUGGCCUAACAAAGUUUUCGGAAAUGGAGUAAGAAUUACGGAAAUGGUAGAGGAAAUAUAACUUCGGAAUUAUGUAGCUUAUUCAACAGAGGAUUGAGCAUCA
B15: chr3:176767854:176767855:-_ENSG00000177565_ENST00000430069|hu_hu|hu_hu_hu_mus_False|8_58 (ssRNA)
RNA: GGGAGUUCUACAGUCCGACGAUCGACAUCCUUGUUACUGGGCACGUCCUGCCCUCCUUCCCGUAUGCAGUGUCUAAGUACUAACUGCGUAGGGCCACUCGUGCUGUUCUCACUGAGGUUCCAGAUUCUUGCUGUUGAGUCUCCCAACAGAGGAUUGAGCAUCA
B16: 168272914_168273034_492_CDS_ENSG00000130396_ENST00000400822|human|control|control (ssRNA)
RNA: GGGAGUUCUACAGUCCGACGAUCAUCAUCUUUAUCAGAUGCCUGUCGCAAUGCCUCUUUUUCUCUCUUCUUUUUUUCCUUCUUUUCUUUCUUUGAGAGAGUUCUCUUGAAGUUCUGGAUAACCCCUUCUUUUUCCUGCUUUUCCAACAGAGGAUUGAGCAUCA
B17: chr17:31789506:31789507:-_ENSMUSG00000061613_ENSMUST00000166526|mus_hu|motif|central (ssRNA)
RNA: GGGAGUUCUACAGUCCGACGAUCAGACUGGGAAGAGUUUUGAGGGUUACGGUAAAUGUUCAAGAGGGCAAUGGUCUGGCGGAACGUCGGUUUAUUGUGCAACCGAGAGCACCUGUCUCCAUGACGACAUGCUCCAAUUUUGAACAACAGAGGAUUGAGCAUCA
B18: chr4:76721835:76721836:+_ENSG00000138768_ENST00000264904|hu_mus|hu_hu_hu_mus_True|58_58 (ssRNA)
RNA: GGGAGUUCUACAGUCCGACGAUCGUUUGGCUGGGGUUUCUGAGACGCUCUGGAAUAUAACUCAUGUUUGCUAAUAAUCCUAGUUUCCUCUAUGAAAUUCUCUUUGCCAAUCCUCUUCUCUAUUAGUUGCUUUAGUUUCUCUUUCAACAGAGGAUUGAGCAUCA
B19: chr1:50642785:50642786:+_ENSG00000162374_ENST00000371827|hu_hu|motif|central (ssRNA)
RNA: GGGAGUUCUACAGUCCGACGAUCAGUGUUGAUGGCUUUCUCUGCAUCCUUUGGAUCAAUAUAGUUAACAAAUCCAUACCCGGAACUCUGUCCUGUAAUUUUGUCUCUCACAAGUUUGCAGGAUUCUAUUUCACCAAUGCUCCCCAACAGAGGAUUGAGCAUCA
B20: 5921728_5921951_1343_CDS_ENSG00000089195_ENST00000203001|human|control|control (ssRNA)
RNA: GGGAGUUCUACAGUCCGACGAUCCCUGAGGUUGAUGACCCCUCCCCUCUCCCGCAGUUUUGUGUAGCAUUCCAACAGAGGCUCUUUGUACUGACAGUAGACCACAAACGGCCUUGAAGGGGCCACAAAGUCCAGCAAAGACAGCAACAGAGGAUUGAGCAUCA
B21: 107480339_107480459_1678_CDS_ENSMUSG00000020721_ENSMUST00000106746|mouse|control|control (ssRNA)
RNA: GGGAGUUCUACAGUCCGACGAUCGACCCUGGUCAUCACCAGCCGUCCAGCCAAAGUGUCUUCCGAGAGGGUUUCAGUAAGCUUGAAACGACCAAAAAGUUGUCCAUUCUGAGCAUACUUUGCACCCCCAGAAACUCCAGUGAGCAACAGAGGAUUGAGCAUCA
B22: chr12:105553856:105553857:+_ENSG00000136051_ENST00000332180|hu_hu|motif|central (ssRNA)
RNA: GGGAGUUCUACAGUCCGACGAUCAAUUAUAUAGAAAUUUCGGAGAUGUAUAUUCUUUGGCCUUCGAAAUUCUGGAGCAAAAACGUCGGCAAGCAUUUUGAAAUAUUCUGUGCCUUCGGCAGAAUUUCGUGUGUGAUCACUGAGCAACAGAGGAUUGAGCAUCA

Target: T1, UNK ZnF1-3 (human, UniProt Q9C0B0 31-174)
T1 sequence: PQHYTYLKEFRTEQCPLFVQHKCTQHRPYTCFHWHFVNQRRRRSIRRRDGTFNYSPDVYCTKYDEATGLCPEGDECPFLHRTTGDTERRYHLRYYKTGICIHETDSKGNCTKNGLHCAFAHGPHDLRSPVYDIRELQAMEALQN
Test: nsRBNS (natural sequence RNA bind-n-seq); RBNS binding buffer (assumed for nsRBNS): 25 mM Tris pH 7.5, 150 mM KCl, 3 mM MgCl2, 0.01% Triton X-100, 500 ug/ml BSA, 20 U/ml SUPERase-In, 4 C; UNK is unkempt and MSI1 is Musashi-1; names of the RNAs are library labels; protein concentration not given here; high values mean tight binding

**Q.** B1 was tested. Which binding signal did it give?
**A.** 1.04 enrichment R

**Q.** Which binding signal does the source give for B2 here?
**A.** 0.523 enrichment R

**Q.** For B3, which binding signal is on record?
**A.** 0.489 enrichment R

**Q.** For B4, which binding signal is on record?
**A.** 1.19 enrichment R

**Q.** Which binding signal does the source give for B5 here?
**A.** 1.05 enrichment R

**Q.** For B6, which binding signal is on record?
**A.** 0.472 enrichment R

**Q.** How did the binding signal turn out when B7 was run?
**A.** 1.19 enrichment R

**Q.** With B8 as the binder, how does the binding signal read?
**A.** 0.885 enrichment R

**Q.** With B9 as the binder, how does the binding signal read?
**A.** 1.81 enrichment R

**Q.** For B10, which binding signal is on record?
**A.** 0.86 enrichment R

**Q.** Which binding signal does the source give for B11 here?
**A.** 0.681 enrichment R

**Q.** With B12 as the binder, how does the binding signal read?
**A.** 1.21 enrichment R

**Q.** B13 was tested. Which binding signal did it give?
**A.** 0.922 enrichment R

**Q.** How did the binding signal turn out when B14 was run?
**A.** 1.52 enrichment R

**Q.** For B15, which binding signal is on record?
**A.** 0.561 enrichment R

**Q.** B16 was tested. Which binding signal did it give?
**A.** 0.264 enrichment R

**Q.** With B17 as the binder, how does the binding signal read?
**A.** 0.899 enrichment R

**Q.** With B18 as the binder, how does the binding signal read?
**A.** 0.433 enrichment R

**Q.** With B19 as the binder, how does the binding signal read?
**A.** 0.633 enrichment R

**Q.** How did the binding signal turn out when B20 was run?
**A.** 2.05 enrichment R

**Q.** For B21, which binding signal is on record?
**A.** 0.585 enrichment R

**Q.** How did the binding signal turn out when B22 was run?
**A.** 1.35 enrichment R
